From a collection of fitness landscapes (doi:10.1016/j.celrep.2020.107928)
In all, about 81,000 sequences were measured (“one-hybrid fitness for binding NBS DNA”: median about -0.1, highest 2% from about 0.36 on). The list shows a part of the results.

B1: Caulobacter ParB omega fusion; a variant is named by its letters at X, in order, B8GW30 (parent)
chain: MESVVVGEPGMSEGRRGLGRGLSALLGEVDAAPAQAPGEQLGGSREAPIEILQRNPDQPRRTFREEDLEDLSNSIREKGVLQPILVRPSPDTAGEYQIVAGERAWRAAQRAGLKTVPIMVRELDDLAVLEIGIIENVQRADLNVLEEALSYKVLMEKFERTQENIAQTIGKSXSHVANXMRLLXLPDEVQSYLVSGELTAXHARAIAAAADPVALAKQIIEGGLSVRETEALARKAPNLSAGKSKGGRPPRVKDTDTQALESDLSSVLGLDVSIDHRGSTGTLTITYATLEQLDDLCNRLTRGI

Variants of: B1
Assay: one-hybrid fitness for binding NBS DNA (the Noc-binding site; scaled: cognate 1, non-cognate 0); higher = stronger binding
Details: with NBS DNA site
Summary of the method: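 Bacterial one-hybrid selection in E. coli USO rpoZ- hisB- pyrF- with a HIS3 reporter carrying the site 19 bp from the promoter, screening Caulobacter ParB libraries with four specificity codons randomised (NNS). Cells grew 48 hours at 37°C on M9-minus-histidine plus 0.1 mM IPTG and 5 mM 3-AT. Plasmids before and after selection were Illumina-sequenced, three replicate libraries pooled, and variants under 10 reads dropped. Fitness is the log change in variant-to-wild-type read ratio, rescaled to cognate 1, non-cognate 0.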

one-hybrid fitness for binding NBS DNA, 0.221:
QLWS

one-hybrid fitness for binding NBS DNA, 0.496:
QRRQ

one-hybrid fitness for binding NBS DNA, 0.244:
RQKQ

one-hybrid fitness for binding NBS DNA, 0.273:
RKSC

one-hybrid fitness for binding NBS DNA, 0.301:
IYPR

one-hybrid fitness for binding NBS DNA, 0.433:
RMTS

one-hybrid fitness for binding NBS DNA, 0.351:
QIKA

one-hybrid fitness for binding NBS DNA, 0.368:
QQMS

one-hybrid fitness for binding NBS DNA, ≤ 0.2:
FDGR
SRDG
HSAI
MTAC
SDCW
TMSI
SWIC
RYTI
WMVT
SMMH
NARY
QWPH
THPG
CSML
TDDV
LKTG
TPLV
RPLL
PKAN
RATA
FRCR
LPNG
GHAG
ICRY
HMQT
RVAK
DPDT
NQGL
HMEF
IIVR
DNSR
QNWF
VQAE
MYAS
RMWP
KRRG
KVTK
VADG
TAQM
RFRE
GTCA
EDNT
ATND
YNTG
MTWW
QTQP
VGDR
AWSG
VIAT
TRHV
PAQY
WTFS
GSPE
DSSK
YEHC
TYKA
PHHL
MQMG
LKHR
HRSA
CMLN
SGRK
CTQN
TLGE
ALSF
PHFG
VTMQ
YWLS
HLHN
YKSD
HIYC
ASME
MWTV
EIGN
TTAN
YRAI
ISSL
PDYE
ETLW
YNIY
ALTM
GHHS
RMEN
QSVG
SPSK
DRDC
RTFE
KTRV
HAYF
FKPR
YGDI
WLLG
MRDV
AGMS
MGPT
WTVR
HYAS
FSEM
SRPM
KRVG
SYQC
KCRD
LMAI
PQRN
ITDY
CSPK
QWYY
SLPG
ELAF
HINN
GMTR
WFQF
QKDC
SFET
TNSS
IVTT
SANY
KTDV
DLLD
HIWG
CKYC
GTPC
GTTY
SPCF
LYSR
TEWS
PMGY
KVQG
NCSE
YTAY
QQDC
KPET
GESD
ARTG
CTHG
SHVD
AKLN
MAKD
AINP
MYHL
CGNA
MSWS
RWYM
VRVG
CPPK
QVDF
PPIT
ISGL
QMQQ
TDDM
TWNG
MPYR
EHLR
LWNS
ITWG
RSSM
HQLC
KFTT
QFPA
INLF
LHGL
SHAL
WIPV
RYIS
ETLT
YSVG
PWGR
NDCR
EFPA
HPHR
WIGV
HLCF
CSKV
RGVC
MQNF
KYKC
YVSC
QSHM
VTSP
WDKC
ERIT
GYER
EAIP
HAVF
TCKI
QRVD
HDTA
SNLD
VNRR
HPVF
TRWA
CVHT
VEKL
PQTN
LMYR
IGKT
GRSL
KHLG
CPIR
PATS
WGTS
ISML
NFTC
ERDI
ARMV
TSWM
AWGR
GSKC
LYIP
LQKM
RGFQ
YEAC
RHYK
NNIR
ISKG
PRWE
HRWR
QPNH
KTDK
MRLG
LTQL
CQIS
DIQS
RNKD
DVQC
TFRH
ESKG
DYPR
PDYG
REIA
SWDS
FSIY
RYWM
KWHG
STYW
WQLT
DLDD
GCPF
VREG
TTGG
RETG
RSQN
HMWG
PYLC
QPLV
CSYD
YQWS
VRSK
PVAF
YCQR
THQS
KSIF
KNTI
YEYR
ICVT
NLHY
VQGF
QCNP
VNQR
GLRP
VVRW
VTNT
INRE
RCII
RERR
PGKF
WMYG
KQAL
GPPN
RFDV
ITRA
RKCW
PTRQ
QESR
RYQN
LNDN
DVSE
TIFK
AEHR
WGGS
GPIE
IYKM
SQNC
SCCG
NGNA
RLTK
QRFD
DEPW
VMAH
LRIA
VSMP
CCPG

one-hybrid fitness for binding NBS DNA, 0.372:
QCQA

one-hybrid fitness for binding NBS DNA, 0.203:
QRYW

one-hybrid fitness for binding NBS DNA, 0.212:
PQRR

one-hybrid fitness for binding NBS DNA, 0.252:
QLRG

one-hybrid fitness for binding NBS DNA, 0.266:
QKKW

one-hybrid fitness for binding NBS DNA, 0.205:
QIIT
